This is an account of results in the RNAGym collection of RNA variant scans (doi:10.7554/elife.90254).

The source gives no read counts; variants with many changes may rest on few reads.

The labels stand for the following.
B1: LINE1-mini (parent)
chain: GGCAGAGCUCAACACAGCGUGGCAAAGUGGCUGUGGCUAGACUGCC

Variants of B1 are the subject of the series. Kind of series: self-cleavage, relative activity (ratio to wild type); higher = more cleavage; in vitro, sequencing; the parent is a self-cleaving ribozyme.
Take GGCAGAGCUCAACACAGCGUGGCAAAGUAGCUGUGGCUAGAGCGCC [G29A C42G U43C]: the self-cleavage was 0.02.

As for GGCAGAGCUCAACACAGCGUGGCAAAGAGGCUGUGGCUAAACUGCA [U28A G40A C46A], the self-cleavage was 0.03. In the case of GGCAGAGCUCAACACAGCGUGGCAAAGUAGCUGUCGCAAGAGUCCC [G29A G35C U38A C42G G44C] it was 0.05; in that of GGCAGAGCUCAACACAGCGUGGCAAAGGGGCUGUGGCUACACUGAC [U28G G40C C45A], 0.01; in that of GGCAGAGCUCAACACAGCGUGGCAAAGUCGCUGUGUCUAGACUACC [G29C G36U G44A], 0.23.

As to GGCAGAGCUCAACACAGCGUGGCAAAGGGUCUGUGGCUAGCCUGCC [U28G G30U A41C], the self-cleavage worked out at 0.01. As to GGCAGAGCUCAACACAGCGUGGCAAAGUUGCUGUGCCUCGACUGCC [G29U G36C A39C], the self-cleavage was 0.02. In the case of GGCAGAGCUCAACACAGCGUGGCAAAGGGGCUGUGGCUAGUGUGCC [U28G A41U C42G] it was 0.03; in that of GGCAGAGCUCAACACAGCGUGGCAAAUUGGCUGCGGGUAGACGGCC [G27U U34C C37G U43G], 0; in that of GGCAGAGCUCAACACAGCGUGGCAAAGAGGAUGUGGCUUGACUGCC [U28A C31A A39U], 0.16.

In the case of GGCAGAGCUCAACACAGCGUGGCAAAGGGACUGUGGCUAGACGUCC [U28G G30A U43G G44U], the self-cleavage was determined as 0.02. For GGCAGAGCUCAACACAGCGUGGCAAAGUCGCUGUGGCCAGAAUGCG [G29C U38C C42A C46G], the self-cleavage was 0. The value for GGCAGAGCUCAACACAGCGUGGCAAAGAGGCUGUGUUUAGACUGCC [U28A G36U C37U] was 0.02; that for GGCAGAGCUCAACACAGCGUGGCAAAGUGACUGUGGCUAGAUUGGC [G30A C42U C45G] was 0.07. Regarding GGCAGAGCUCAACACAGCGUGGCAAAGUCGCUGUGGGCAGUCUGCC [G29C C37G U38C A41U], the self-cleavage was 0.01.

Regarding GGCAGAGCUCAACACAGCGUGGCAAAGCGGCUGUGGCAAGAGUGCC [U28C U38A C42G], the self-cleavage came out at 0.01. For the variant GGCAGAGCUCAACACAGCGUGGCAAAGGGGCAGUGGCCAGACUGCC [U28G U32A U38C], the self-cleavage is 0.12. GGCAGAGCUCAACACAGCGUGGCAAAGAGCCUGCGGCUAGACUGCU [U28A G30C U34C C46U]: the self-cleavage turned out to be 0.01.

As to GGCAGAGCUCAACACAGCGUGGCAAAGUGACUUUGGCUAGACUUCC [G30A G33U G44U], the self-cleavage was 0.39. For GGCAGAGCUCAACACAGCGUGGCAAAGUCGCUGUGGCCAGGAUGCC [G29C U38C A41G C42A], the self-cleavage came out at 0.01. In the case of GGCAGAGCUCAACACAGCGUGGCAAAGGUGCUUUGGCAAGACUGCC [U28G G29U G33U U38A] it was 0.02; in that of GGCAGAGCUCAACACAGCGUGGCAAAGGGGCUGUGGCUAGAGCGUC [U28G C42G U43C C45U], 0.03. In the case of GGCAGAGCUCAACACAGCGUGGCAAAGUCGGUGUUGCUACACUGCC [G29C C31G G35U G40C] it was 0.03; in that of GGCAGAGCUCAACACAGCGUGGCAAAGUGACUGUGGUUAGACUGCG [G30A C37U C46G], 0.08; in that of GGCAGAGCUCAACACAGCGUGGCAAAGUUGCUGUGGCAAGCCUGCC [G29U U38A A41C], 0. The value for GGCAGAGCUCAACACAGCGUGGCAAAGCGACUUUGGCCAGACUGCC [U28C G30A G33U U38C] was 0.04; that for GGCAGAGCUCAACACAGCGUGGCAAAGUUCCUGUGGCUAUACUGCC [G29U G30C G40U] was 0.13. As to GGCAGAGCUCAACACAGCGUGGCAAAGCGGCUGAGGCUACACUGCC [U28C U34A G40C], the self-cleavage is 0.08. In the case of GGCAGAGCUCAACACAGCGUGGCAAAGGGGCUGCGGCUAGACGGCC [U28G U34C U43G] it was 0.05.

Take GGCAGAGCUCAACACAGCGUGGCAAAGUUGCUGUGACUCAACUGCC [G29U G36A A39C G40A]: the self-cleavage stood at 0.54. As to GGCAGAGCUCAACACAGCGUGGCAAAGUUGCUGUGGCUGGAUUGCC [G29U A39G C42U], the self-cleavage was 0.12. The value for GGCAGAGCUCAACACAGCGUGGCAAAGAGCCUGUGGCUAGAAUGCC [U28A G30C C42A] was 0.02; that for GGCAGAGCUCAACACAGCGUGGCAAAGUCUUUGUGGUUAGACUGCC [G29C G30U C31U C37U] was 0.06.

With GGCAGAGCUCAACACAGCGUGGCAAAGUGACUGUGGAUAGGCUGCC [G30A C37A A41G], the self-cleavage worked out at 0.01. Take GGCAGAGCUCAACACAGCGUGGCAAAGUGACUGUGGAUAGGCUCCC [G30A C37A A41G G44C]: the self-cleavage worked out at 0.05.

Turning to GGCAGAGCUCAACACAGCGUGGCAAAGAGUCAGUGGCUAGGCUGCC [U28A G30U U32A A41G], the self-cleavage is 0.16. Consider GGCAGAGCUCAACACAGCGUGGCAAAGUAUCUGUGGCUAGACUUCC [G29A G30U G44U], for which the self-cleavage stood at 0.37. In the case of GGCAGAGCUCAACACAGCGUGGCAAAGCGGCUGUGGCUAGUCCGCC [U28C A41U U43C] it was 0.09; in that of GGCAGAGCUCAACACAGCGUGGCAAAGUUGCUGUGGCCAAACUGCC [G29U U38C G40A], 0.25. For the variant GGCAGAGCUCAACACAGCGUGGCAAAGUCGCUGUGGCGAGACAGCC [G29C U38G U43A], the self-cleavage came out at 0.02.

On to GGCAGAGCUCAACACAGCGUGGCAAAGAGAUUGUGGCUAUCCUGCC [U28A G30A C31U G40U A41C], for which the self-cleavage amounted to 0.06. With GGCAGAGCUCAACACAGCGUGGCAAAGUGACUGUGGCUUGUCUGCU [G30A A39U A41U C46U], the self-cleavage worked out at 0.17. In the case of GGCAGAGCUCAACACAGCGUGGCAAAGUAGCUUUAGCUAGACUGCC [G29A G33U G35A] it was 0.05; in that of GGCAGAGCUCAACACAGCGUGGCAAAGGCGCUGUGAAUAGACUGCC [U28G G29C G36A C37A], 0.01. GGCAGAGCUCAACACAGCGUGGCAAAGAGGCUGUGGGUAGAGUGCC [U28A C37G C42G]: the self-cleavage was found to be 0.02.

For the variant GGCAGAGCUCAACACAGCGUGGCAAAGUUGCCGUCGCUAAACUGCC [G29U U32C G35C G40A], the self-cleavage was determined as 0.06. For GGCAGAGCUCAACACAGCGUGGCAAAGUGACUGUGGCUAGGCAGUC [G30A A41G U43A C45U], the self-cleavage was found to be 0.01. Regarding GGCAGAGCUCAACACAGCGUGGCAAAGUCACUGAGGCUAGACUGCC [G29C G30A U34A], the self-cleavage turned out to be 0.02. The value for GGCAGAGCUCAACACAGCGUGGCAAAGACACUGUGGCUAGACUGCC [U28A G29C G30A] was 0.72; that for GGCAGAGCUCAACACAGCGUGGCAAAGUUGCAGUGGCUCGACUGCC [G29U U32A A39C] was 0.06; that for GGCAGAGCUCAACACAGCGUGGCAAAGGGGCUGUGGUUAGAUUGCC [U28G C37U C42U] was 0.01.

Consider GGCAGAGCUCAACACAGCGUGGCAAAGUUGCGGUGGCUAGACUGGC [G29U U32G C45G], for which the self-cleavage was found to be 0.13.

In the case of GGCAGAGCUCAACACAGCGUGGCAAAGUUGCGGUGGCUAGACUGUC [G29U U32G C45U], the self-cleavage amounted to 0.16.

For the variant GGCAGAGCUCAACACAGCGUGGCAAAGGGGCUUUGGCUAAACUGCC [U28G G33U G40A], the self-cleavage turned out to be 0.03.

GGCAGAGCUCAACACAGCGUGGCAAAGUUGAUGUGGCUAAAAUGCC [G29U C31A G40A C42A]: the self-cleavage came to 0. Regarding GGCAGAGCUCAACACAGCGUGGCAAAGUUGCUGUGGCUCGGUUGCC [G29U A39C A41G C42U], the self-cleavage came out at 0.05.
